Results published in paper PMC12040169 (PLOS Biology, 2025).
The other results are listed elsewhere or left out.

test system: T1, C. trachomatis L2/434/Bu expressing GFP (CTL2-GFP); set-up: species or system HeLa; C. trachomatis total inclusion area by high-content imaging, normalised to DMSO; conditions: total inclusion area; 28.5 h, 10 µM; inhibitor
T1 construct: L2/434/Bu GFP intracellular growth in HeLa cells
In short: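 High-content imaging followed the bulk GFP/resorufin measurement: fixed, Hoechst-stained cells were scored for GFP inclusions and host nuclei per well. Total inclusion area and count served as growth proxies, nuclei number as the viability proxy. MIC calculation matched the bulk assay.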

First: O=C(N1CCC=C(F)C1)C12CCOCC1CN(c1ncccn1)C2 (stereo not drawn) [CBK304264]
Second: NC(=O)CN1CCN(c2nccnc2Oc2ccc(F)cc2)CC1 [CBK083018T]
The “% of control remaining” value of the first is lower: 86.2899 for the first, 108.277 for the second.

Compared with `CN(C)c1ccc(-c2cc(N3CCN(S(=O)(=O)c4ccc(Cl)cc4)CC3)ncn2)cc1` [CBK091158], `CN(C)CCN1CCN(c2cccc(-c3ccc(-c4ccccc4)cc3)n2)CC1` [CBK037610] is lower in “% of control remaining” value: 105.04 for the first, 89.4366 for the second.

First: CSc1nsc(SCC(=O)c2cc3ccccc3oc2=O)n1 [CBK268833]
Second: CCOC(=O)Nc1ccc2ccccc2n1 [CBK028207]
The “% of control remaining” value of the first is higher: 108.213 for the first, 33.6955 for the second.

First: CN(C)Cc1cc(-c2ccccc2F)nn1CCNC(=O)C1CC1 [CBK282006]
Second: Cn1nccc1C(=O)C1CCN(C(=O)c2ccccc2F)CC1 [CBK284425]
The “% of control remaining” value of the first is higher: 110.019 for the first, 81.9762 for the second.

First: O=C1S/C(=C/c2ccc(Cl)cc2)C(=O)N1c1ccc(F)cc1 [CBK113265]
Second: COc1ccc(-n2nnnc2SCc2ccc(Cl)cc2)cc1 [CBK101068]
The “% of control remaining” value of the first is higher: 75.4041 for the first, 24.8075 for the second.

Going from `OCCN1CC2(CCN(Cc3cccc4cccnc34)CC2)c2ccccc21` [CBK137014] to `O=C(N/N=C\c1cccc2ccccc12)c1ccc(CO)nc1` [CBK261377], the “% of control remaining” value rises from 83.9768 to 97.2993.

First: COC(=O)CCC(=O)N1CCC(Cn2cncn2)(C2CCCCC2)CC1 [CBK136810]
Second: O=C(Nc1cccnc1)N1CCCCC1CO (stereo not drawn) [CBK155990]
The “% of control remaining” value of the first is higher: 74.6757 for the first, 72.4144 for the second.

First: CN(C)CCN1C(=O)CCc2ccccc21 [CBK023390C]
Second: Cc1c(CNCCN2CCCC2=O)c2ccccc2n1C [CBK281519]
The “% of control remaining” value of the first is lower: 15.0982 for the first, 88.0427 for the second.

First: OC(Cc1ccccc1)c1cc2n(n1)CCN(Cc1ccsc1)C2 (stereo not drawn) [CBK307603]
Second: O=C(O)C1CC(=O)N(Cc2ccccc2)C1c1ccccc1 (stereo not drawn) [CBK286876]
The “% of control remaining” value of the first is higher: 95.8049 for the first, 90.3044 for the second.

First: O=C(NCc1ccc2c(c1)OCO2)C1CN(S(=O)(=O)c2ccccc2)CCN1S(=O)(=O)c1ccccc1 (stereo not drawn) [CBK267059]
Second: COC(=O)c1ccc(NC(=O)C2Cc3ccccc3CN2S(=O)(=O)c2cccs2)cc1 (stereo not drawn) [CBK265693]
The “% of control remaining” value of the first is higher: 129.072 for the first, 113.986 for the second.

First: O=C1c2ccccc2C2OCc3ccccc3N12 (stereo not drawn) [CBK109952]
Second: O=C1N/C(=C/c2cccs2)C(=O)N1Cc1ccccc1F [CBK265601]
The “% of control remaining” value of the first is lower: 99.0078 for the first, 111.436 for the second.

Compared with `Cc1ccc2nc(C)cc(NCCO)c2c1` [CBK126909], `Cc1cc(C)nc(NC(=N)NC2Cc3ccccc3C2)n1` [CBK287863] is lower in “% of control remaining” value: 62.2148 for the first, 1.854 for the second.

First: O=C(NCCCCn1ccnc1)c1noc2c1CCCC2 [CBK283208]
Second: O=c1[nH]c(=S)c2c(n1CCc1ccccn1)CCCC2 [CBK023951G]
The “% of control remaining” value of the first is higher: 108.861 for the first, 84.4701 for the second.

Compared with `COc1ccc(N2CCN(c3cc(-c4ccccc4OCc4ccccc4)ncn3)CC2)cc1OC` [CBK091024], `O=C1c2ccccc2C(=O)N1CSc1nnc2c3ccccc3n(CCc3ccccc3)c2n1` [CBK263891] is higher in “% of control remaining” value: 74.7657 for the first, 77.8652 for the second.

First: CCOC(=O)CC(O)(c1ccc(OC)cc1)c1cc(C)no1 (stereo not drawn) [CBK023133]
Second: CCCCOc1ccc(C(=O)N(C)c2cnn(C)c2)c(O)c1 [CBK306167]
The “% of control remaining” value of the first is higher: 75.5359 for the first, 28.0231 for the second.

Compared with `C=CCn1c(C)c(CN2CCc3c(nc(C)[nH]c3=O)C2)c2ccccc21` [CBK283990], `Cc1ccc(OCCCC(=O)N2CCCc3c(cnn3C)C2)c(C)c1` [CBK285288] is lower in “% of control remaining” value: 94.5316 for the first, 82.9596 for the second.

First: CCCn1nccc1C(=O)NC1CCCN(Cc2cccc(OC)c2)C1 (stereo not drawn) [CBK306563]
Second: Cc1cccnc1C(NC(=O)C1CCN(Cc2ccoc2)CC1)c1ccc(Cl)cc1 (stereo not drawn) [CBK148227]
The “% of control remaining” value of the first is lower: 51.9375 for the first, 103.411 for the second.

First: CCn1cc(S(=O)(=O)NCc2ccccc2F)cn1 [CBK270306]
Second: O=[N+]([O-])c1ccccc1S(=O)(=O)NCCSCc1c(F)cccc1Cl [CBK265259]
The “% of control remaining” value of the first is lower: 74.7979 for the first, 121.632 for the second.

First: Cc1cc(C(=O)NCc2cccnc2N(C)C2CCCCC2)[nH]n1 [CBK306668]
Second: CC(C)(C)C(=O)Nc1ccc(S(=O)(=O)NC2CCCCC2)cc1 [CBK268783]
The “% of control remaining” value of the first is lower: 75.9945 for the first, 103.221 for the second.

Compared with `O=C(c1cccnc1)C1CCN(C(=O)Cc2ccccc2Cl)CC1` [CBK283690], `O=C(NCc1cccnc1)c1ccc(-c2cccc(Cl)c2Cl)o1` [CBK112211] is lower in “% of control remaining” value: 88.6253 for the first, 85.1894 for the second.

Compared with `CC(C)(C)c1nnc(NCC2CCCCC2)s1` [CBK075043], `C=CCN1C(=O)C2(CC(=O)N(CCC3CCCCC3)C2=O)c2ccccc21` (stereo not drawn) [CBK075160] is lower in “% of control remaining” value: 104.424 for the first, 77.6168 for the second.

Compared with `O=C(N[C@H]1C[C@H](c2nnc(CO)n2C2CC2)C1)c1ccc(Cl)c(F)c1` [CBK307093], `C=CCNC(=O)N[C@H]1C[C@H]2C(=O)Nc3cc(Cl)ccc3C(=O)N2C1` [CBK289365] is lower in “% of control remaining” value: 104.553 for the first, 88.2069 for the second.

Going from `O=C(O)CCCC(=O)Nc1ccccc1C(=O)NCc1ccco1` [CBK299840] to `O=C(CSCc1ccc([N+](=O)[O-])cc1)Nc1ccc(O)cc1C(=O)O` [CBK131710], the “% of control remaining” value falls from 113.25 to 38.8385.

Going from `CC1CN(Cc2nc3c(c(=O)n(C)c(=O)n3C)n2CCCc2ccccc2)CC(C)O1` (stereo not drawn) [CBK269349] to `O=c1n(Cc2cccnc2)c2cccnc2n1Cc1cccs1` [CBK283903], the “% of control remaining” value falls from 87.1832 to 72.0779.

First: CCCCC(c1cccnc1)N(C)C(=O)Cn1ccccc1=O (stereo not drawn) [CBK306936]
Second: O=C(CSc1ccccc1)Nc1nccs1 [CBK288213]
The “% of control remaining” value of the first is lower: 38.9217 for the first, 107.67 for the second.

Compared with `COc1cc(-c2nc(C(C)=O)c(C)n2O)cc(OC)c1OC` [CBK270083], `CNc1c(C)cc([N+](C)(C)C)cc1C` [CBK261007I] is higher in “% of control remaining” value: 87.8938 for the first, 104.048 for the second.

Going from `Clc1ccc(-n2ncc(-c3ccsc3)n2)cc1Cl` [CBK112843] to `Clc1cccc(-n2cnnn2)c1Cl` [CBK027665], the “% of control remaining” value falls from 91.4621 to 54.9123.

First: Cc1nc(-c2ccc(NC(=O)CC(C)n3cccn3)cc2)cs1 (stereo not drawn) [CBK281403]
Second: O=C(Nc1nc(-c2ccccc2)ns1)c1ccncc1 [CBK113234]
The “% of control remaining” value of the first is higher: 115.051 for the first, 113.329 for the second.

Going from `Cc1cc2c(s1)c1cnn(CC(=O)N3CCCCC3)c(=O)c1n2C` [CBK284187] to `CCn1cc(-c2cncn2CC(C)N2CCCCC2)cn1` (stereo not drawn) [CBK281556], the “% of control remaining” value rises from 73.8975 to 88.9033.

First: COc1cc(F)ccc1-c1ccc(NS(C)(=O)=O)c2ccccc12 [CBK083744]
Second: Cc1cc(F)ccc1S(=O)(=O)NCC1CC(=O)Nc2ccccc21 (stereo not drawn) [CBK305210]
The “% of control remaining” value of the first is higher: 86.0332 for the first, 75.1844 for the second.

Compared with `O=C(O)CCSC(CC(=O)c1ccccc1)c1ccc(Cl)cc1` (stereo not drawn) [CBK077251], `O=C(O)CC(C(=O)O)c1ccc(Cl)cc1Cl` (stereo not drawn) [CBK268523] is higher in “% of control remaining” value: 92.672 for the first, 106.257 for the second.

Compared with `C[C@@H]1C(=O)O[C@H]2[C@H]1CC[C@@]1(C)Cc3sc(NC(=O)CN(C)C)nc3[C@@H](C)[C@H]21` [CBK289431], `O=C(COc1ccccc1[N+](=O)[O-])Nc1nc2c(s1)CCC2` [CBK296663] is lower in “% of control remaining” value: 102.387 for the first, 95.6304 for the second.

First: CC(C)C1C(=O)Nc2ccccc2N1C(=O)NCCC(=O)O (stereo not drawn) [CBK286659]
Second: CC(C)[C@H](NC(=O)Cc1n[nH]c(=O)c2ccccc12)C(=O)O [CBK286607]
The “% of control remaining” value of the first is lower: 72.8809 for the first, 80.5519 for the second.

Going from `COCCOc1cccc(OCCOc2nccnc2N2CCNC[C@H]2C)c1` [CBK048435] to `CCN1CCCC1CN(Cc1ccccn1)Cc1ccco1` (stereo not drawn) [CBK283161], the “% of control remaining” value falls from 103.203 to 88.8873.

Compared with `FC(F)(F)c1ccc(OCCCc2ccncc2)nc1` [CBK115791], `CC(C)(CN)CN(Cc1ccccc1C(F)(F)F)C(=O)Nc1ccc(Cl)cc1Cl` [CBK026832C] is higher in “% of control remaining” value: 90.7872 for the first, 113.542 for the second.

Compared with `O=C(Nc1ccc(S(=O)(=O)Nc2ncccn2)cc1)c1ccc(N2C(=O)c3ccccc3C2=O)cc1` [CBK264868], `N#Cc1cccc(S(=O)(=O)Nc2cccc(C(=O)O)c2)c1` [CBK155699] is lower in “% of control remaining” value: 96.192 for the first, 68.8996 for the second.

Going from `Cc1ccccc1CNCCNCC(C)O` (stereo not drawn) [CBK268718C] to `CC(=O)N1CC(C)(C)c2ccccc21` [CBK003715], the “% of control remaining” value rises from 93.4703 to 103.33.

First: O=C(Nc1ccccc1F)c1cc(Cl)sc1Cl [CBK085969]
Second: O=C(Nc1cc(Cl)cc(Cl)c1)c1csnn1 [CBK057759]
The “% of control remaining” value of the first is higher: 92.5767 for the first, 38.8325 for the second.

First: Cc1ccc(S(=O)(=O)N2CCC(N3CCN(CCO)CC3)CC2)cc1 [CBK264656G]
Second: Cc1ccc(C(C)(C)C(=O)N2CC(C(=O)N3CCN(C)CC3)C2)cc1 [CBK281371]
The “% of control remaining” value of the first is lower: 101.776 for the first, 105.476 for the second.

First: COc1ccc(CN2CC=CC2C(=O)O)cc1Cn1cncn1 (stereo not drawn) [CBK307524]
Second: CC(C)NC(=O)N1CCN(Cc2nc(-c3ccoc3)no2)CC1 [CBK306248]
The “% of control remaining” value of the first is higher: 88.8654 for the first, 37.3485 for the second.

Compared with `COC(=O)c1c(NC(=O)CCCC(=O)O)sc2c1CCCCC2` [CBK265393], `CCOC(=O)c1c2c([nH]c(=S)c1C#N)CCCC2` [CBK020049] is higher in “% of control remaining” value: 112.451 for the first, 121.52 for the second.

First: O=[N+]([O-])c1ccc2c(c1)C=C1CCCCC1(NCc1ccccc1)O2 (stereo not drawn) [CBK262716]
Second: CCN(CC)c1nc2n(c(=O)n1)CCN2CC [CBK027342]
The “% of control remaining” value of the first is higher: 89.7641 for the first, 56.555 for the second.
